Reference: patent US20130115213A1 (AFFIMED THERAPEUTICS, published 2013)

Experiments:
[1] = target: T1, human CD3 (TCR/CD3 complex) on the cell surface (human, UniProt P07766); assay: flow cytometry on CD3+ Jurkat cells; reference scFv10
T1 construct: whole, on cells; On cells CD3 stands as the whole TCR/CD3 complex; also called CD3+ Jurkat cells
Protocol: The human CD3⁺ T-cell leukemia cell line Jurkat was used for flow cytometry experiments. The cells were cultured in RPMI 1640 medium supplemented with 10% heat-inactivated fetal calf serum (FCS), 2 mM L-glutamine, 100 U/mL penicillin G sodium and 100 μg/ml streptomycin sulfate (all from Invitrogen, Groningen, The Netherlands) at 37° C. in a humidified atmosphere with 5% CO₂. 1×10⁶ cells were incubated with 0.1 ml phosphate buffered saline (PBS, Invitrogen, Groningen, The Netherlands) supplemented with 2% heat-inactivated fetal calf serum (FCS, Invitrogen, Groningen, The Netherlands) and 0.1% sodium azide (Roth, Karlsruhe, Germany) (referred to as FACS buffer) containing diluted scFv-antibodies or mAb OKT3 (Orthoclone OKT3, Cilag, Sulzbach, Germany) for 45 min on ice. After washing with FACS buffer, the cells were incubated with 0.1 ml of 0.01 mg/ml anti-(His)₆ mouse mAb 13/45/31-2 (Dianova, Hamburg, Germany) in the same buffer for 45 min on ice. […] The fluorescence of 1×10⁴ stained cells was measured using a Beckman-Coulter Epics XL flow cytometer (Beckman-Coulter, Krefeld, Germany). Mean fluorescence (F) was calculated using System-II and Expo32 software (Beckman-Coulter, Krefeld, Germany) and the background fluorescence was subtracted. […]

[2] = target: T1, human CD3 (TCR/CD3 complex) on the cell …; assay: flow cytometry on CD3+ Jurkat cells, Lineweaver-Burk fit
Protocol: The human CD3⁺ T-cell leukemia cell line Jurkat was used for flow cytometry experiments. The cells were cultured in RPMI 1640 medium supplemented with 10% heat-inactivated fetal calf serum (FCS), 2 mM L-glutamine, 100 U/mL penicillin G sodium and 100 μg/ml streptomycin sulfate (all from Invitrogen, Groningen, The Netherlands) at 37° C. in a humidified atmosphere with 5% CO₂. 1×10⁶ cells were incubated with 0.1 ml phosphate buffered saline (PBS, Invitrogen, Groningen, The Netherlands) supplemented with 2% heat-inactivated fetal calf serum (FCS, Invitrogen, Groningen, The Netherlands) and 0.1% sodium azide (Roth, Karlsruhe, Germany) (referred to as FACS buffer) containing diluted scFv-antibodies or mAb OKT3 (Orthoclone OKT3, Cilag, Sulzbach, Germany) for 45 min on ice. After washing with FACS buffer, the cells were incubated with 0.1 ml of 0.01 mg/ml anti-(His)₆ mouse mAb 13/45/31-2 (Dianova, Hamburg, Germany) in the same buffer for 45 min on ice. […] The fluorescence of 1×10⁴ stained cells was measured using a Beckman-Coulter Epics XL flow cytometer (Beckman-Coulter, Krefeld, Germany). Mean fluorescence (F) was calculated using System-II and Expo32 software (Beckman-Coulter, Krefeld, Germany) and the background fluorescence was subtracted.

[3] = target: T1, human CD3 (TCR/CD3 complex) on the cell …; assay: cell surface retention on CD3+ Jurkat cells at 37 C; ln2/koff
Protocol: (§1) To investigate the biological relevance of the differences between scFv₆, scFv₁₀ and OKT3 in direct binding experiments, the in vitro retention of the scFv-antibodies on the surface of CD3⁺ Jurkat cells was determined by flow cytometry (FIG. 7). Cell surface retention assays were performed at 37° C. under conditions preventing internalization of cell surface antigens, as described (Adams et al., 1998, Cancer Res. 58, 485-490), except that the detection of retained scFv-antibodies was performed using mouse anti-(His)₆ mAb 13/45/31-2 (0.01 mg/ml; Dianova, Hamburg, Germany) followed by FITC-conjugated goat anti-mouse IgG (0.015 mg/ml; Dianova, Hamburg, Germany). Kinetic dissociation constant (koff) and half-life (t_{1/2}) values for dissociation of antibodies were deduced from a one-phase exponential decay fit of experimental data using the software program PRISM (GraphPad Software, San Diego, Calif.).

[4] = target: T1, human CD3 (TCR/CD3 complex) on the cell …; assay: cell surface retention on CD3+ Jurkat cells at 37 C; reference scFv10
Protocol: as §1

[5] = target: T1, human CD3 (TCR/CD3 complex) on the cell …; assay: cell surface retention on CD3+ Jurkat cells at 37 C, flow cytometry, one-phase exponential decay fit
Protocol: as §1

T1 sequence (P07766 23-207, one chain of several): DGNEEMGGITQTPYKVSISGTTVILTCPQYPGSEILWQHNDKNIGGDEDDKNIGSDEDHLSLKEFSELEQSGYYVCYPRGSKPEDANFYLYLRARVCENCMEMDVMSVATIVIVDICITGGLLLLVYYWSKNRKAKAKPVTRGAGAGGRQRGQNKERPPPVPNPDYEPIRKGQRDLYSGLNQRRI

- fold difference in affinity against scFv10 [1]: 10 fold
- Kd [2]: 4.58 nM
- t1/2 [3]: 1.48 min
- fold longer t1/2 against scFv10 [4]: 1.5 fold
- koff [5]: 0.00782 s⁻¹
B1: anti-CD3 scFv6 (scFv)
scFv: QVQLQQSGAELARRGASVKMS[letters of about 80 residues omitted]WGQGTTLTVSSAKTTPDIVLTQSPAIMSASPGEKVTMTCSASSSVSYMNWYQQKSGTSPKRWIYDTSKLASGVPAHFRGSGSGTSYSLTISGMEAEDAATYYCQQWSSNPFTFGSGTKLEINRADTAAAGSHHHHHH
notes: VH-SAKTTP-VL with six C-terminal histidine residues, made in the E. coli periplasm with a PelB leader; also called bivalent scFv6; diabody
